The record followed here is article PMC8201891 (Journal of Nanobiotechnology, 2021).

For series [1], the target named is T1, His-tagged integrin α2β1 protein (ACROBiosystems).
T1 construct: Integrin alpha-2; recombinant, bought; Integrin beta-1; No catalogue number is printed; source: bought: ACROBiosystems
Nature of the series: BLI; Octet RED96; His-tagged integrin α2β1 loaded on Anti-Penta-HIS tips from a 10 nM solution; 2D-HFn or HFn 0.2 to 5 μM in solution; binding buffer with 2 mM Mg2+; room temperature, 1000 rpm; association 720 s, dissociation 300 s; 1:1 model. Particulars: both partners purified. On the technique in general: In BLI a coated tip is dipped into the sample, and binding shifts an interference pattern.

Series [2] concerns the molecule itself. Nature of the series: transmission electron microscopy + dynamic light scattering; purified protein; TEM at 0.5 mg/mL, stained with 4% uranyl acetate; DLS at 1 mg/mL, 25 °C.

One may read the Kd as the equilibrium constant for the complex coming apart.

B1: Human H-ferritin (HFn) (natural protein)
chain: not shown
notes: The reverse primer carries the stop codon, so no C-terminal tag; the number was not measured here; also called naïve HFn; H subunit of ferritin; source: E. coli BL21 (DE3), purified (80 °C heat step, ammonium sulfate precipitation, Sephacryl S-300 HR size exclusion); copies: 24
As for B1, in series [1], the Kd was 36.3 µM. In addition, the binding result in series [2] is recorded as “binds”.
